# In PMC4336329 (PLoS ONE, 2015):
# Screen size: about 310,000 compounds; about 14,000 (4.5%) showed an effect of 50% or more. Effects have a minus sign here. This is one part of the list.
# Molecular target: human ether-à-go-go-related gene (hERG) potassium channel (human, UniProt Q12809)
# Test: primary screen, population patch clamp on CHO cells stably expressing hERG
# 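Also: peak tail current of the secondary pulse compared with the same well before compound.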
# Sequence of human ether-à-go-go-related gene (hERG) potassium channel (Q12809 whole entry, looked up): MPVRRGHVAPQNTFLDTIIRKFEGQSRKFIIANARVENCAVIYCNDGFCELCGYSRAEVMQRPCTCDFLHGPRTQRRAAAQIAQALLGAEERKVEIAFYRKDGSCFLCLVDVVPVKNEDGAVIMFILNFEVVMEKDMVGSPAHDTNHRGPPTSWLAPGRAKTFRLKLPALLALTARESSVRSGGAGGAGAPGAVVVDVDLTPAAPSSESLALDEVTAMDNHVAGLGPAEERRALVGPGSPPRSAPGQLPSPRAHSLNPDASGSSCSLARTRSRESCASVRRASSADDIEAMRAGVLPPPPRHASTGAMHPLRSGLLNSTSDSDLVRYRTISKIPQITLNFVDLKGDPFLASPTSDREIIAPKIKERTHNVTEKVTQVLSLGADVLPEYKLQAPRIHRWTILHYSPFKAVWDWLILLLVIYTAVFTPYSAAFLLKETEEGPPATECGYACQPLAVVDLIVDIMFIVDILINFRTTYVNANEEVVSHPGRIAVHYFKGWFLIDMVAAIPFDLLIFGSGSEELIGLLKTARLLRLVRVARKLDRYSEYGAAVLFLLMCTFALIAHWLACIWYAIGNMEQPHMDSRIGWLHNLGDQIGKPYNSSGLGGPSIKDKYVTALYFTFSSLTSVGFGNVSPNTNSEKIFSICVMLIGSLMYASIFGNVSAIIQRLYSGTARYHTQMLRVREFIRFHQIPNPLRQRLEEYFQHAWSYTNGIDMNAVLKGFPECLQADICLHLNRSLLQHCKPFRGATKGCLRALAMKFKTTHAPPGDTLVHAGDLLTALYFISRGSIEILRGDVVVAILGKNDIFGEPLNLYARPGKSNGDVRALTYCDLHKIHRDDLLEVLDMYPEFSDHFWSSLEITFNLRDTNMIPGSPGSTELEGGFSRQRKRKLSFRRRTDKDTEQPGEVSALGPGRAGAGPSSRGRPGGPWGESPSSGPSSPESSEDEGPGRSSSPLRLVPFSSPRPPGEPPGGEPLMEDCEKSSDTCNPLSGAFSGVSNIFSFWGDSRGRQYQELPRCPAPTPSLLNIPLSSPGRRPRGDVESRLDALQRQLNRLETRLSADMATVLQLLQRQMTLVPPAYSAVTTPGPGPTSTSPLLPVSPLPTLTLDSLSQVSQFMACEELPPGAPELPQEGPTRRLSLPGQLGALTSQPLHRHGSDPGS
row,SMILES,"hERG current change (%, negative = inhibition) at 10uM [%]"
1,COc1ccc(CNS(=O)(=O)c2ccc3c(c2)CCN3C(=O)C2CCC2)cc1,12.6
2,O=C(CN(c1ccccn1)S(=O)(=O)c1ccccc1)N/N=C/c1cccc([N+](=O)[O-])c1,-7.62
3,O=C(Cc1cccs1)NCc1cccs1,-12
4,CCOc1ccc(NC(=O)CN(C)C(=O)c2ccc(C)c(S(=O)(=O)N3CCCCC3)c2)cc1OCC,-2.83
5,Cc1ccc(C)c(NC(=O)CSc2nc3c(oc4ccccc43)c(=O)n2-c2ccccc2)c1,10.7
6,COc1ccc(OC)c(CNC(=O)C2CCCN(S(=O)(=O)N3CCC(C)CC3)C2)c1 (stereo not drawn),-17.4
7,O=C(/C=C(O)/C=C/c1ccc(O)cc1)/C=C/c1ccc(O)cc1,18.7
8,N#Cc1ccc(NC(=O)C2CC(c3ccc(F)cc3)=NO2)cc1 (stereo not drawn),-14.1
9,CCN1CCN(C2=C(NS(=O)(=O)c3ccc(NC(C)=O)cc3)C(=O)c3ccccc3C2=O)CC1,7.39
10,CCOc1cc(C(=O)NCc2ccc3c(c2)OCO3)cc(OCC)c1OCC,18.4
11,O=C(COC(=O)Cc1c[nH]c2ccccc12)Nc1c(Cl)cccc1C(F)(F)F,-5.24
12,CCOc1cc(S(=O)(=O)N2CCN(C(=O)c3ccco3)CC2)ccc1F,-39.7
13,O=C(COC(=O)c1cnc(Cl)c(Cl)c1)NCCC1=CCCCC1,15.1
14,COc1ccc(N2CCN(C(c3cccs3)C(C)NC(=O)C(=O)N3CCCC3)CC2)cc1 (stereo not drawn),-13.9
15,C/C(CC(=O)NCc1ccco1)=N\NC(=O)COc1ccc(Cl)cc1Cl,-65.6
16,CCN(/N=C/c1ccccc1)c1cc(=O)n(C)c(=O)[nH]1,-8.13
17,C[C@@H]1NC(=O)c2cc([N+](=O)[O-])cc(I)c2OCC[C@@H](C(N)=O)NC(=O)[C@H](CCCCN)NC1=O,16.4
18,COc1ccc(-c2cc([C@H]3[C@@H]4C=CCC[C@@]4(C)C(=O)N3Cc3ccccc3)ccc2F)cc1,8.38
19,Cc1cccc(NS(=O)(=O)c2cc(OCC(N)=O)c(C)cc2Cl)c1,-7.38
20,Cc1cc(C)c(C(=O)N2CCCC(Nc3ccc(C)c(C)c3)C2)o1 (stereo not drawn),5.21
21,Cc1cc(C)nc(N/N=C/c2ccccc2OCc2ccc(Cl)cc2)n1,-3.39

row,SMILES,"hERG current change (%, negative = inhibition) at 10uM [%]"
1,Cc1cc(C)cc(NC(=O)Nc2ccc(N3CCCCC3)cc2)c1,19.5
2,O=C(CSc1nc2ccc(NC(=O)C3CCCCC3)cc2s1)NCC1CCCO1 (stereo not drawn),2.42
3,COCCNc1c([N+](=O)[O-])c(=O)n(-c2ccccc2)c2ccccc12,-25.2
4,CN1CC=C2C(C#N)=C(N)C(C#N)(C#N)C(c3cccc(Cl)c3Cl)C2C1 (stereo not drawn),-7.56
5,Cc1cc(NC(=O)C(C)SCC(=O)NCc2ccc(F)cc2)no1 (stereo not drawn),-0.245
6,COc1cc(/C(C)=N\NC(N)=S)cc(OC)c1OC,-17.5
7,CCOc1cc2[nH]c(=O)n(CCCCCC(=O)NCc3ccco3)c(=O)c2cc1OCC,0.762
8,CC(OC(=O)C1CSC2(C)CCC(=O)N12)C(=O)Nc1ccc(F)cc1 (stereo not drawn),4.87
9,CCCCc1ccc(NC(=O)Nc2c(C)n(C)n(-c3ccccc3)c2=O)cc1,2.05
10,O=C(NC12CC3CC(CC(C3)C1)C2)C1CCCN1C(=O)NC1CCCCC1 (stereo not drawn),13
11,Cn1c(-c2ccc(F)cc2)cc2onc(-c3ccccc3Cl)c2c1=O,2.89
12,COc1ccc(-c2oc3c4c(cc(OC)c3c(=O)c2CC=C(C)C)OC(C)(C)C=C4)c(OC)c1,12.6
13,Cc1cc(NC(=O)CCC(=O)N(c2ccccc2)C2(C(=O)NC3CCCCC3)CCCC2)no1,-0.368
14,O=C1C=CC(=C(c2ccc(O)cc2)c2ccc(O)cc2)C=C1,4.78
15,CCCC1C(C(=O)OCC)=C(C)NC(C)=C1C(=O)OCC,10.7
16,Cc1cccc(NC(=O)CN(CC2CCCO2)C(=O)c2oc3ccc(F)cc3c2C)c1C (stereo not drawn),-34.7
17,COCCCNCCCCOc1ccccc1-c1ccccc1.O=C(O)C(=O)O,-43.4
18,CS(=O)(=O)c1ccc(C(=O)OCC(=O)c2ccc(Cl)s2)cc1,-6.47
19,O=C(Cc1c(Cl)cccc1Cl)Nc1cccnc1,17.7
20,O=C(CCCC(=O)c1ccccc1)NCCc1ccccc1,7.95
21,C/C(=N\NC(=O)C1CCCC1)c1ccc(Cl)cc1Cl,12.6

row,SMILES,"hERG current change (%, negative = inhibition) at 10uM [%]"
1,O=C1c2ccccc2C(=O)N1CC(=O)N1c2ccccc2CCc2ccccc21,6.3
2,CC1CCC(CN2CCN=C2N(C)C)CC1 (stereo not drawn),-1.65
3,Cc1nc2ccccc2cc1C(=O)N/N=C/c1cccc([N+](=O)[O-])c1,-30.9
4,COc1ccc(/C(O)=C2\C(=O)C(=O)N(CCN(C)C)C2c2cccc(OC)c2OC)cc1Cl (stereo not drawn),3.53
5,NC(=O)/C(=C\c1ccccc1)NC(=O)/C=C/c1ccccc1,16.8
6,COc1ccccc1OCC(=O)Nc1cccc(-c2nc3ccccc3o2)c1,0.23
7,Cc1c(NC(=O)/C(=C\c2ccccc2)NC(=O)c2ccccc2)c(=O)n(-c2ccccc2)n1C,21.4
8,CC(=O)Nc1ccc2nc(NC(=O)c3ccc([N+](=O)[O-])o3)sc2c1,20.9
9,COc1cc(OC)c(CN2CCN(c3ccc(F)cc3)CC2)cc1Br,-70.3
10,COc1ccc(Nc2ccc(C(=O)O)cc2[N+](=O)[O-])cc1,4.18
11,CC(=O)NC(Cc1ccc(O)cc1)C(=O)NN (stereo not drawn),28.2
12,Cc1cc(C)nc(SCC(=O)Nc2ccc(S(=O)(=O)Nc3cc(C)on3)cc2)n1,21.1
13,Cc1ccc(SCC(=O)Nc2ccc(C(=O)Nc3ccc(O)cc3)cc2)cc1,10.1
14,O=C(O)Cn1nnc(-c2ccc(OCc3ccccc3)cc2)n1,23.9
15,CCc1ccc(N2CC(C(=O)NNC(=O)c3ccc(F)cc3)CC2=O)cc1 (stereo not drawn),-14.5
16,COC(=O)c1ccc2nc(C3CCCCC3)c3c(c2c1)CCC3,7.96
17,CC(=O)NC(CCS(C)(=O)=O)C(=O)Nc1ccc(Cl)c(Cl)c1 (stereo not drawn),0.279
18,CCOC(=O)CN1C(=O)N[C@@H](c2cccc(C(F)(F)F)c2)[C@H](C(C)=O)[C@H]1C,-0.00062
19,O=C(COC(=O)Cc1ccccc1[N+](=O)[O-])NNC(=O)c1ccc([N+](=O)[O-])cc1,-21.9
20,CCOc1ccc(C2C(C#N)=C(N)N3C(=C2C#N)Sc2ccccc23)cc1 (stereo not drawn),9.5
21,Cc1ccc(-c2c(C#N)c(N)n(-c3ccccc3)c(=O)c2C#N)cc1,20.3

row,SMILES,"hERG current change (%, negative = inhibition) at 10uM [%]"
1,Brc1ccc(CSc2nnc(Cc3c[nH]c4ccccc34)o2)cc1,-22.2
2,Cc1ccnn1-c1ccc(C(=O)N2CCCN(S(=O)(=O)c3ccc(F)cc3)CC2)cc1,-69.7
3,Cc1c(NC(=O)CSc2nc3ccccc3s2)c(=O)n(-c2ccccc2)n1C,-20.7
4,Cn1cc(/C=C2\C(=O)NC(=O)N(c3ccccc3)C2=O)c2ccccc21,5.33
5,CN(C(=O)COC(=O)C1CCN(S(=O)(=O)c2c(Cl)cccc2Cl)CC1)C1CCCCC1,-31.9
6,CC(CNC(=O)CCn1c(=O)c2cccn2c2ccc(F)cc21)c1ccccc1 (stereo not drawn),4.23
7,COc1ccc(N2C(=O)CC(SCCc3nc4ccccc4[nH]3)C2=O)cc1 (stereo not drawn),-32
8,O=C(CCc1nnc(CCc2ccccc2)o1)N1CCCCC1CCn1cccn1 (stereo not drawn),-51.1
9,Cc1ccc(C(=O)N2N=C(c3ccc(NS(C)(=O)=O)cc3)CC2c2cccs2)cc1 (stereo not drawn),-23.1
10,Cc1nn(C)c(C)c1NC(=O)COc1ccc(Cl)cc1,-4.78
11,Cc1ccc(F)cc1NC(=O)c1ccc(NS(=O)(=O)c2ccc(Br)s2)cc1,-70
12,CCOC(=O)c1ccccc1NC(=O)c1cccc(F)c1,1.04
13,CC(C)NC(=O)c1[nH]nc2c1CCc1ccccc1-2,-2.37
14,Cc1ccc(-n2nc3c(=O)n(C(C)C(=O)NCCCc4ccccc4)nc(C)c3c2C)cc1 (stereo not drawn),-55.2
15,CCCC(O)(CCN1CCOCC1)c1ccc(Cl)cc1 (stereo not drawn),3.77
16,Cc1cc(C)cc(NC(=O)C(OC(=O)c2sccc2C)c2ccccc2)c1 (stereo not drawn),13.5
17,CCOC(=O)c1c(-c2cccc([N+](=O)[O-])c2)csc1N,-15.6
18,c1ccc(-c2cc(-c3nnco3)c3ccccc3n2)nc1,18.2
19,COc1ccc(OC)c(-c2csc(NC(=O)Cc3ccccc3)n2)c1,-13.7
20,CCOC(=O)N1CCN(C(=O)c2cn(CC)c3ccc(S(=O)(=O)N4CCOCC4)cc3c2=O)CC1,6.31
21,CCCN(C(=O)/C=C/c1nc2ccccc2s1)C1CCS(=O)(=O)C1 (stereo not drawn),-19.7
